Data reported in patent US20240247076A1 (SUZHOU ALPHAMAB, published 2024).
Numbering of substitutions follows the chain as printed.

B1: iFE15m-Fc (Fc fusion)
chain: QVQLQESGGGLVQPGGSLRLSCAASGFTFSNYDMSWVRQAPGKGLEGVSGINSGGGHPHYADSVKGRFTISRDNAKNTLYLQMNSLKTEDTAVYFCATDEGERYGEDFGYWGQGTQVTVSS[sequence of human IgG1 Fc omitted]
notes: VHH fused to human IgG1-Fc, made in HEK293
B2: huFE5huv4-Ld-Fc (Fc fusion)
chain: QVQLVESGGGSVQAGGSLRLSCAASGYTYSFNSMGWFRQAPGKGLEGVSVIYLGSTHYADSVKGRFTISQDNSKNTVYLQMNSLRAEDTAVYYCAADLLEYDGTWFGSTYNYWGQGTLVTVSS[sequence of human IgG1 Fc omitted]
notes: Humanized VHH fused to human IgG1 Fc; 'Ld' not explained
B3: huFE5huv1-Ld-Fc (Fc fusion)
chain: B2 chain with G44E, L45R, S49A
notes: Humanized VHH fused to human IgG1 Fc; 'Ld' not explained; also called huFE5huvl-Ld-Fc
B4: huFE5huv2-Ld-Fc (Fc fusion)
chain: B2 chain with S11L, A14P, Q70R, V77L
notes: as for B2
B5: huFE5huv3-Ld-Fc (Fc fusion)
chain: B2 chain with S11L, A14P, G44E, L45R, S49A
notes: as for B2
B6: huFE5huv5-Ld-Fc (Fc fusion)
chain: B2 chain with V77L, R85K, A86P
notes: as for B2
B7: huFE5huv6-Ld-Fc (Fc fusion)
chain: B2 chain with S11L, A14P, V77L, R85K, A86P
notes: as for B2
B8: huFE35huv2-Ld-Fc (Fc fusion)
chain: QVQLVESGGGLVQPGGSLRLSCAASGFTFDDSDMGWYRQAPGNECELVSTISSDGRGFYADSVKGRFTISRDNSKNTLYLQMNSLRAEDTAVYYCAAGWYGSFCSGLGQGTLVTVSS[sequence of human IgG1 Fc omitted]
notes: as for B2
B9: huFE35huv3-Ld-Fc (Fc fusion)
chain: B8 chain with A23T, L78V
notes: as for B2
B10: huFE35huv5-Ld-Fc (Fc fusion)
chain: B8 chain with L11S, P14A, A23T, R71Q, R86K, A87P
notes: as for B2
B11: huFE35huv6-Ld-Fc (Fc fusion)
chain: B8 chain with A23T, R86K, A87P
notes: as for B2
B12: huFE13huv4-Ld-Fc (Fc fusion)
chain: QVQLVESGGGSVQAGGSLRLSCAASGYTYSMGAMAWFRQAPGKGLEGVSLIATSSGFISYTDSVKGRFTISQDNSKNTVYLQMNSLRAEDTAVYYCAAGTQFSWSPGSYNYWGQGTLVTVSS[sequence of human IgG1 Fc omitted]
notes: as for B2
B13: huFE13huv2-Ld-Fc (Fc fusion)
chain: B12 chain with S11L, A14P, Q72R, V79L
notes: as for B2
B14: huFE13huv3-Ld-Fc (Fc fusion)
chain: B12 chain with S11L, A14P, G44E, L45R, S49A
notes: as for B2
B15: huFE13huv5-Ld-Fc (Fc fusion)
chain: B12 chain with V79L, R87K, A88P
notes: as for B2
B16: huFE13huv6-Ld-Fc (Fc fusion)
chain: B12 chain with S11L, A14P, V79L, R87K, A88P
notes: as for B2
B17: huFE56huv2-Ld-Fc (Fc fusion)
chain: QVQLVESGGGLVQPGGSLRLSCAASGHTYSSNYCMAWFRQAPGKEREGVAAIYSDGSTSYADSVKGRFTISRDNSKNTLYLQMNSLRAEDTAVYYCAATAYEGSWTGKQPLCLLYEYTYWGQGTLVTVSS[sequence of human IgG1 Fc omitted]
notes: as for B2
B18: huFE56huv3-Ld-Fc (Fc fusion)
chain: B17 chain with R72K
notes: as for B2
B19: huFE56huv4-Ld-Fc (Fc fusion)
chain: B17 chain with L11S, P14A, E45G, R46L, A50S, R72K
notes: as for B2
B20: huFE56huv5-Ld-Fc (Fc fusion)
chain: B17 chain with L11S, P14A, E45G, R46L, A50S, R72K, R87K, A88P
notes: as for B2
B21: huFE56huv6-Ld-Fc (Fc fusion)
chain: B17 chain with E45G, R46L, A50S, R72K, R87K, A88P
notes: as for B2
B22: huFE97huv4-Ld-Fc (Fc fusion)
chain: QVQLVESGGGSVQAGGSLRLSCTASEFTFDDSDMAWYRQAPGNECELVSTITSDGGTYYADSVKGRFTISRDNSKNTMYLQMNSLRAEDTAVYYCAADQWGSAEGDCTSSYPGGYWGQGTLVTVSS[sequence of human IgG1 Fc omitted]
notes: as for B2
B23: huFE97huv2-Ld-Fc (Fc fusion)
chain: B22 chain with S11L, A14P, T23A, M78L
notes: as for B2
B24: huFE97huv3-Ld-Fc (Fc fusion)
chain: B22 chain with S11L, A14P, R71Q
notes: as for B2
B25: huFE97huv5-Ld-Fc (Fc fusion)
chain: B22 chain with M78L, R86K, A87P
notes: as for B2
B26: huFE97huv6-Ld-Fc (Fc fusion)
chain: B22 chain with S11L, A14P, M78L, R86K, A87P
notes: as for B2
B27: huFE148huv5-Ld-Fc (Fc fusion)
chain: QVQLVESGGGSVQAGGSLRLSCAASGYTFNNNFVGWFRQAPGKGLEGVSAIYSLGGSTYYADSVKGRFTISQDNSKNTLYLQMNSLKPEDTAVYYCAGAITWVPPLSHRRYTYWGQGTLVTVSS[sequence of human IgG1 Fc omitted]
notes: as for B2
B28: iFE17EREG-Fc (Fc fusion)
chain: QVQLQESGGGLVQPGGSLRVSCAASGFTFSLYDMSWVRQAPGKEREGVSGINSDDGSTSYADSVKGRFTISRDNAKNTLYLQMNSLKTEDTAVYYCATGVGARWFREDDWGQGTQVTVSS[sequence of human IgG1 Fc omitted]
notes: as for B1
B29: iFE49-Fc (Fc fusion)
chain: QVQLQESGGDSVQAGGSLRLSCAASGLISTGLISTRHCMSWFRQAPGKEREEVAVIGSDGSTRYGDFAKGRFTISKDTAKNTLYLQMNSLEPEDTAMYYCAAGPLVSTASRRRTRCPEGPRENIYWGQGTQVTVSS[sequence of human IgG1 Fc omitted]
notes: as for B1
B30: huFE148huv4-Ld-Fc (Fc fusion)
chain: B27 chain with L79V, K87R, P88A
notes: as for B2
B31: huFE148huv2-Ld-Fc (Fc fusion)
chain: B27 chain with S11L, A14P, Q72R, K87R, P88A, G98A
notes: as for B2
B32: huFE148huv3-Ld-Fc (Fc fusion)
chain: B27 chain with S11L, A14P, G44E, L45R, S49A, L79V, K87R, P88A
notes: as for B2
B33: huFE148huv6-Ld-Fc (Fc fusion)
chain: B27 chain with Q72R
B34: huFE35huv4-Ld-Fc (Fc fusion)
chain: B8 chain with L11S, P14A, A23T, R71Q, L78V
notes: as for B2

What was measured:
human FXI in plasma [1] = biological target: T1, human FXI in plasma (human, UniProt P03951); test: cell-based or functional assay
hApple-chis [2] = biological target: T2, hApple-chis (human, UniProt P03951 fragment); test: ELISA, Fc fusion on coated antigen
T2 construct: range 1-387; also called happle-chis-biotin

hApple-chis [3] = biological target: T2, hApple-chis; test: BLI, antibody captured on sensor, antigen in solution
[4] = biological target: T3, recombinant human factor XI (hFXI) (human, UniProt P03951); test: as above
T3 construct: also called hFXI-Chis; hFXI-CHis

[5] = biological target: T4, RabFXI-Apple-CHis protein (New Zealand rabbit); test: as above
T4 construct: also called FXI proteins of New Zealand rabbits

human FXI in plasma [6] = biological target: T1, human FXI in plasma; test: cell-based or functional assay; remark: listed apart in the source

Binder | Kd (hApple-chis [3]) | Kd [4] | also measured
B1 | – | – | Activity (FXI), APTT, 1 µg/mL antibody (human FXI in plasma [1]): 88%; Coagulation time (s), APTT, 1 µg/mL antibody (human FXI in plasma [1]): 61 s; EC50 (hApple-chis [2]): 0.0422 mg/L
B2 | 0.00286 nM | 0.656 nM | –
B3 | < 0.001 nM | 0.656 nM | Kd [5]: 287 nM; activity of FXI factor in human plasma at 0.1 µg/mL (human FXI in plasma [6]): 87.2%; activity of FXI factor in human plasma at 0.5 µg/mL (human FXI in plasma [6]): 68.9%; activity of FXI factor in human plasma at 1 µg/mL (human FXI in plasma [6]): 47.4%; activity of FXI factor in human plasma at 5 µg/mL (human FXI in plasma [6]): 7.5%; activity of FXI factor in human plasma at 10 µg/mL (human FXI in plasma [6]): 6.15%
B4 | 0.00231 nM | 0.612 nM | Kd [5]: 451 nM
B5 | 0.00144 nM | 0.456 nM | –
B6 | 0.00156 nM | 0.656 nM | –
B7 | < 0.001 nM | 0.656 nM | –
B8 | 0.00121 nM | 25.5 nM | –
B9 | < 0.001 nM | 9.65 nM | –
B10 | < 0.001 nM | 10.2 nM | –
B11 | 0.00324 nM | 10.2 nM | –
B12 | 0.823 nM | 8.84 nM | –
B13 | 0.664 nM | 10.5 nM | Kd [5]: 31.5 nM
B14 | 0.93 nM | 6.84 nM | –
B15 | 0.856 nM | 8.84 nM | –
B16 | 0.912 nM | 8.84 nM | –
B17 | < 0.001 nM | 4.21 nM | –

Binder | Kd (hApple-chis [3]) | Kd [4] | also measured
B18 | 0.0021 nM | 5.97 nM | –
B19 | 0.00133 nM | 3.97 nM | –
B20 | 0.00321 nM | 3.97 nM | –
B21 | 0.00345 nM | 3.97 nM | –
B22 | < 0.001 nM | 2.67 nM | –
B23 | < 0.001 nM | 2.51 nM | Kd [5]: 0.96 nM
B24 | 0.00142 nM | 1.98 nM | –
B25 | < 0.001 nM | 2.67 nM | –
B26 | 0.00133 nM | 2.67 nM | –
B27 | 0.423 nM | 2.64 nM | –
B28 | – | – | EC50 (hApple-chis [2]): 3.85 mg/L
B29 | – | – | EC50 (hApple-chis [2]): 0.0657 mg/L
B30 | 0.523 nM | 2.64 nM | –
B31 | 0.45 nM | 4.56 nM | Kd [5]: 7.21 nM
B32 | 0.368 nM | 3.45 nM | –
B33 | 0.487 nM | 2.64 nM | –
B34 | 0.00154 nM | – | –
